Source: the supplement of paper PMC4466236
In all, about 33,000 sequences were measured (“E-score (dimensionless, -0.5 to 0.5)”: median about -0.058, highest 2% from about 0.35 on). This is one part of the list.

Tested on: MvaT
Test: PBM 8-mer E-score (mean of HK and ME arrays) (E-score (dimensionless, -0.5 to 0.5)); higher = stronger relative binding preference; most listed sequences are background and not binding sites
Description: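 Protein binding microarray: GST-tagged full-length MvaT (P. aeruginosa PAO1) bound to two universal double-stranded 60-mer arrays (ME and HK), each with a constant 25-mer primer and a variable 35-mer region covering all 8-mers. The 8-mer E-score (rank-based, range -0.5 to 0.5, >0.45 = specific binding) is the mean of the two arrays.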

Row | Sequence | PBM 8-mer E-score
1 | ATCTCATG | -0.00311
2 | GGGACATA | -0.0264
3 | AGGGCTCC | -0.302
4 | AGTTGGTA | 0.229
5 | ACTTGGCG | 0.0161
6 | GCGACCCC | -0.139
7 | CGAAAGCG | -0.224
8 | AACTCAAG | -0.0533
9 | ACCAGAGC | -0.224
10 | AATGGAAC | 0.052
11 | AAGAATAG | 0.12
12 | CAAAAGCG | 0.0233
13 | GGAATTCA | 0.0984
14 | ACAAAACT | 0.138
15 | CTTGGCAA | 0.00207
16 | CAATGCTG | -0.0786
17 | GGAGTACA | -0.00566
18 | CACGGGGG | -0.347
19 | TGACCTCA | -0.175
20 | CGACAAAC | 0.0232
21 | AATTCAGA | 0.251
22 | CAGATCTG | -0.121
23 | AATTAAGT | 0.395
24 | GGCACGAA | -0.255
25 | CGTCGTAC | -0.182

Row | Sequence | PBM 8-mer E-score
26 | ACTGGAGC | -0.113
27 | CCAGCAGA | -0.138
28 | CTGCAAGC | -0.29
29 | CATCGGAG | -0.157
30 | CTGATCAA | -0.0959
31 | GTGGGTGA | 0.0119
32 | ACTGATGA | -0.0672
33 | GAAACCGA | -0.0374
34 | CCTCAATC | -0.0519
35 | ACATAATA | 0.401
36 | CCAAAAGG | -0.187
37 | GTTGATCA | 0.0156
38 | GAATAGAC | 0.00866
39 | ACAGTGTG | 0.0186
40 | AGCGTGTA | -0.00148
41 | AATCTAGG | -0.049
42 | GTCACAAA | 0.141
43 | AATTCTCT | 0.137
44 | CCCCGGAG | -0.343
45 | CGCTGCAA | 0.0561
46 | AAGGCGCT | -0.151
47 | CAGTTTGA | 0.132
48 | GCCGCTCC | -0.271
49 | ACACCTGT | -0.233
50 | CGCTGACG | -0.221

Row | Sequence | PBM 8-mer E-score
51 | TATGTGCA | 0.17
52 | TATAAACA | 0.373
53 | GCATCAGA | -0.134
54 | GTACCCTA | -0.101
55 | AACGTCTT | -0.014
56 | GTCTGCCA | -0.154
57 | ACGAAACA | 0.112
58 | ACTGGCCA | -0.171
59 | GTCTCCGA | -0.0491
60 | AAATTAAA | 0.399
61 | AATCTGCC | -0.0395
62 | CAGAACTA | 0.198
63 | CCCAACCC | -0.264
64 | ACGCCACT | -0.0949
65 | TAAGCGGA | 0.0899
66 | CGTTAGCC | -0.129
67 | AGCTACCG | -0.268
68 | AGTGTACG | -0.0263
69 | ATCCAATA | 0.186
70 | AAATAGGA | -0.0215
71 | AGAGGGTA | -0.141
72 | AACTGCTG | -0.0452
73 | CGCAGCCG | -0.215
74 | CCGTTCTC | -0.0662
75 | CGCTCAAA | 0.0659

Row | Sequence | PBM 8-mer E-score
76 | GATAATTA | 0.419
77 | CACTGACG | -0.148
78 | GCGGCAGA | -0.222
79 | CGAAAGGC | -0.183
80 | GACAGGCC | -0.239
81 | CCCTACCA | -0.122
82 | TGGTCTAA | 0.037
83 | CTACTGTA | 0.176
84 | AAAATTGA | 0.224
85 | AGTTTGCC | 0.0484
86 | ATAGTTAA | 0.339
87 | CCGAGCCC | -0.26
88 | CGCCGGTC | -0.192
89 | CGAAGCGC | -0.154
90 | TACTCTCA | 0.11
91 | GATTGTGA | 0.092
92 | GACAGCTC | -0.2
93 | GTTGAGCA | -0.0536
94 | GAAAGGAC | -0.24
95 | CGAGCTAG | -0.17
96 | ATGACAAA | 0.165
97 | AATTGGCT | -0.0492
98 | CGTTTAAC | 0.0182
99 | ACTAAACT | 0.317
100 | ACCCGTTC | -0.267

Row | Sequence | PBM 8-mer E-score
101 | CCTGAGAG | -0.32
102 | AAGCCACC | -0.219
103 | CCCAACGG | -0.282
104 | ATCGCGAC | -0.0729
105 | AGTTCGCA | 0.154
106 | AACCGCAT | 0.0136
107 | CGAAGGCG | -0.125
108 | GTGTCATA | 0.0812
109 | ATCTAACC | 0.0852
110 | AGAGGACA | -0.0682
111 | GGACTCCC | -0.283
112 | AAATACAG | 0.175
113 | GATATGAC | 0.049
114 | CGGACTCA | -0.133
115 | TAACAAGA | 0.212
116 | AATAACCC | 0.226
117 | AATGTGGT | 0.168
118 | AGCGTGAG | -0.231
119 | ATGCAGTG | -0.0239
120 | AATTCGCT | 0.0747
121 | ACGACCTA | -0.0399
122 | ACCTTCCA | 0.0201
123 | AGGGCTTA | -0.187
124 | CAACTGTG | -0.107
125 | AGGGGGCG | -0.324

Row | Sequence | PBM 8-mer E-score
126 | AGTCTACA | 0.112
127 | CATGCCGA | 0.0669
128 | ATACTCAA | 0.166
129 | CTCCAACA | -0.00785
130 | CATACGAC | -0.0194
131 | CATTAGGC | -0.202
132 | AGTTCAAC | 0.167
133 | AAGTTAAG | 0.243
134 | ATTAGTGG | 0.192
135 | ACCGTTTA | 0.151
136 | CTCTATAC | 0.00646
137 | AGCGCTAA | -0.115
138 | AGACCTAA | -0.0291
139 | CAATCCCC | -0.108
140 | TCTAGAAA | 0.0814
141 | TAATACGA | 0.317
142 | CCCTCATA | -0.0718
143 | GGCCTGCA | -0.189
144 | ATACTTAG | 0.256
145 | AGTTTTCG | 0.153
146 | GGGGCAAC | -0.155
147 | AAGCCCCC | -0.314
148 | CTAAACGC | 0.0854
149 | GCATGGGC | -0.165
150 | TACCACCA | 0.0375

Row | Sequence | PBM 8-mer E-score
151 | ATTTCTGA | 0.0863
152 | AACCAGAT | 0.0597
153 | GGGAGTTA | 0.0873
154 | CGGACCAA | -0.11
155 | CGGGTCTC | -0.201
156 | AGACTAAC | 0.00982
157 | ACCGTAAC | 0.0744
158 | TGCTCGAA | -0.102
159 | CCCTAAAC | -0.0647
160 | ATAGAATG | 0.0755
161 | CGCGAGCA | -0.147
162 | GTTTCTGA | 0.127
163 | CGTGCCAA | -0.15
164 | CGTCACTC | -0.168
165 | TCACGCAA | -0.124
166 | AGGGGCTA | -0.267
167 | CATGTGCG | -0.132
168 | AAATAAAT | 0.428
169 | AGTGGTGG | -0.104
170 | GAGCTGTA | -0.0705
171 | CCCTGTTA | -0.0586
172 | GGCGGCAC | -0.132
